Laboratory results published in PubChem BioAssay AID1346428 (National Center for Advancing Translational Sciences (NCATS), 2018).
The campaign covered roughly 48,000 compounds. About 1,200 (2.5%) were called active. About 2% were inconclusive and are not listed.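 The calls were made as follows: active = activation of at least 60% and not above a set upper limit (about 1 call in 100 departs from these limits); inconclusive = activation of 40% to 60%, or above that upper limit; inactive = activation under 40%.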 This is one part of the list.

Biological target: Probable G-protein coupled receptor 32 (Homo sapiens) (UniProt O75388)
UniProt O75388, sequence (O75388 whole entry, looked up): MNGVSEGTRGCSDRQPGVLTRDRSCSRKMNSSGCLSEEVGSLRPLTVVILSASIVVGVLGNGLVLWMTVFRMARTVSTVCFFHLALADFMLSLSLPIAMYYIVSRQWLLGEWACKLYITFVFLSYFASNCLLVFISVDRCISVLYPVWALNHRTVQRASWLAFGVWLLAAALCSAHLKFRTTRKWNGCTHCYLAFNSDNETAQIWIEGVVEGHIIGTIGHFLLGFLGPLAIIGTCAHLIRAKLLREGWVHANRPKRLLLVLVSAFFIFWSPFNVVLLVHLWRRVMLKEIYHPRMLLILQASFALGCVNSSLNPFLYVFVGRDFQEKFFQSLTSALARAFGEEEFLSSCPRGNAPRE
Test: qHTS for Agonists of Human Resolvin D1 Receptor DRV1; also: 0% is about no effect
Details: CHO-K1 GPR32 beta-arrestin PathHunter luminescence, 90 min; at 76.9 µM; stronger effect = higher value; zero percent set by DMSO-only wells
How it was run: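 Agonism was scored as beta-arrestin recruitment to ProLink-fused GPR32 in stably transfected CHO-K1 cells, giving a chemiluminescent beta-Gal signal; compounds were incubated 90 min at 37 °C.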

activation, inactive:
Cc1ccc2oc(C(=O)Nc3sc4c(c3C(=O)NCc3cccnc3)CCCC4)cc(=O)c2c1 -0.342%
CCOC(=O)/C(C#N)=C/c1ccc(-c2ccc(C)cc2)o1 -9.07%
Cc1ccc(-n2nc3c(=O)n(CCCC(=O)NC(C)c4ccccc4)nc(C)c3c2C)cc1 (configuration not stated) -7.62%
CC(C)CC(=O)Nc1nnc(S(=O)(=O)N2CCc3ccccc32)s1 4.96%
Cc1ccc(C(=O)Nc2ccc3[nH]c(=O)c(=O)[nH]c3c2)cc1 7.91%
CC(C)Oc1ccc(CNC(=O)Cn2c(-c3cccs3)cc3ccccc32)cc1 -6.54%
COc1cc(NC(=O)CC2C(=O)N(c3cccc(C)c3)C(=O)N2Cc2cccs2)cc(OC)c1 (configuration not stated) -18.8%
CCS(=O)(=O)N1CCc2cc(C(=O)NCCc3ccc(OC)c(OC)c3)ccc21 7.76%
COc1cccc(C(=O)Nc2ccc(S(=O)(=O)N(Cc3ccccc3)c3ccccc3)cc2)c1 6.82%
Cc1ccc(C2CCN(C(=O)Nc3ccc(C)c(C)c3)C2)cc1 (configuration not stated) -14.6%
Cc1ccc(C)c(N2CCN(c3nc4ccccc4c(=O)n3-c3ccccc3)CC2)c1 -9.94%
O=c1c2c3c(sc2n(Cc2ccc(F)cc2Cl)c(=O)n1-c1ccc(Cl)cc1)CCC3 14.2%
Cc1ccc(NC(=O)c2sc3ncnc(N(C)C4CCCCC4)c3c2C)cc1 -26.8%
Cc1cc(C)c(S(=O)(=O)NCCc2csc3nc(-c4ccc(Cl)cc4)nn23)c(C)c1 -7.47%
CC(=O)c1ccc(N2CCN(C(=O)C3CCN(S(=O)(=O)c4c(C)noc4/C=C/c4ccccc4F)CC3)CC2)cc1 -14.9%
Cc1ccccc1OCc1ccc(-c2nc(C#N)c(N3CCC(C(N)=O)CC3)o2)o1 0.852%
CCOc1ccc2cc(-c3nnc(Nc4ccc(C)cc4)s3)c(=O)oc2c1 3.5%
COc1cccc(Nc2nc3ccc(C(=O)c4ccccc4)cc3n3c(C)nnc23)c1 -1.34%
CCOc1ccc2c(c1)c(=O)c(S(=O)(=O)c1ccc(Cl)cc1)cn2Cc1ccccc1C -1.19%
CC(=O)Nc1ccc(S(=O)(=O)NCCS(=O)(=O)N2CCN(c3ccccc3F)CC2)cc1 -2.7%
O=C(Nc1ccc(Cl)c(-c2nc3cc(Cl)ccc3o2)c1)c1cc2ccccc2o1 -10.9%
Cc1ccc(C)c(CN2C(=O)c3ccccc3S(=O)c3ccc(C(=O)NCCC4=CCCCC4)cc32)c1 (configuration not stated) -6.88%
COc1ccc(CCC(=O)NCCc2csc(-c3cccc(C)c3)n2)cc1 -1.3%
Cc1ccccc1-c1nc(SCC(=O)N(C)c2ccccc2)c2c(=O)n(C)c(=O)n(C)c2n1 -17.1%
CCOC(=O)c1c(S(=O)(=O)NCC(=O)N(C)c2ccc(C)cc2)c(C)n(C)c1C -0.889%
Cc1ccccc1NS(=O)(=O)c1nnc(NC(=O)c2ccco2)s1 13.1%
CC(=O)c1ccc(NC(=O)Cn2cc3c(n2)CCCC3)cc1 -10.6%
CCc1ccc(S(=O)(=O)c2cn(CC)c3cc(N4CCOCC4)c(F)cc3c2=O)cc1 6.12%
O=C(O)c1cc(-c2ccc(C(F)(F)F)cc2)nc2n[nH]c(-c3ccccc3)c12 -23.9%
COc1ccc(Cl)cc1NC(=O)c1ccc2c(c1)CCCN2S(C)(=O)=O -13.6%
COc1ccccc1C(=O)Nc1nnc(S(=O)(=O)N(C)c2ccc(Cl)cc2)s1 -10.6%
CCOc1ccc(CN2CCN(c3ncnc4sc5c(c34)CC(C)CC5)CC2)cc1 (configuration not stated) -3.31%
CCOc1ccc2c(c1)c(=O)c(S(=O)(=O)c1ccccc1)cn2CC(=O)Nc1ccccc1OC -1.2%
Cc1ccc(CNC(=O)C2CCN(S(=O)(=O)c3ccc4c(c3)CCCN4C(=O)C3CCC3)CC2)cc1 -9.07%
CC(COc1ccc(/C=C/c2ccccc2)cc1)[N+](C)(C)C (configuration not stated) -9.63%
O=C(NCCSc1c(-c2ccccc2)[nH]c2ccccc12)c1ccc(S(=O)(=O)N2CCOCC2)cc1 -15%
Cc1ccccc1Cn1c(CN2CCC(C(=O)NCCN(C)C)CC2)cc2ccccc21 -18.1%
COc1ccc(NC(=O)CN2C(=O)CSc3ccc(S(=O)(=O)N4CCCC4)cc32)cc1OC -16.4%
CCOc1ccc(S(=O)(=O)N(CC(=O)NCCc2ccc(OC)c(OC)c2)c2ccccc2)cc1 -2.2%
COc1cccc(NC(=O)c2cc3c(=O)n(C)c4ccccc4c3n2C)c1 14.1%
CCCCNC(=O)c1cnn2c(C)c(Cc3c(F)cccc3Cl)c(C)nc12 -5.78%
Cc1ccccc1NC(=O)CN1C(=O)C(C)(C)c2ccccc21 -6.96%
Cc1cccc(C)c1NC(=O)Cn1c(=O)n(CCC(=O)NCc2ccccc2Cl)c(=O)c2sccc21 9.42%
COc1ccc(OC)c(CCNC(=O)c2c(C)oc3ncn(C)c(=O)c23)c1 -1.38%
COc1ccccc1NS(=O)(=O)c1cc2c(cc1Cl)NC(=O)CO2 6.91%
CCOc1ccc(CCNC(=O)CSc2cc(=O)n(C)c3ccc(Cl)cc23)cc1OCC -7.71%
c1ccc(C2CN3CCSC3=N2)cc1 (configuration not stated) -7.75%
O=C1CN(C(=O)Nc2ccccc2C(F)(F)F)C(c2ccccc2)c2c(sc3c2CCCC3)N1 (configuration not stated) -47.4%
CC(C)Oc1ccc(CNC(=O)c2ccc(Cn3c(=O)c4cccn4c4cccnc43)cc2)cc1 -0.866%
Cc1ccc(NC(=O)CSc2ccc(-c3sc(-c4ccccc4)nc3C)nn2)cc1F -14.3%
CCN1C(=O)C2(c3ccccc31)c1c(oc3ccc(F)cc3c1=O)C(=O)N2CCCOC (configuration not stated) -22.9%
CCCc1cnc2c(c1SCc1ccc(C(F)(F)F)cc1)c(=O)n(C)c(=O)n2C -8.85%
